# Source: the supplement of paper PMC3334620
# In all, about 33,000 sequences were measured (“E-score (-0.5 to 0.5)”: median about -0.04, highest 2% from about 0.36 on). The list shows a part of the results.
# Target: T1, Hmlalpha2 (UniProt P0CY09)
# T1 sequence: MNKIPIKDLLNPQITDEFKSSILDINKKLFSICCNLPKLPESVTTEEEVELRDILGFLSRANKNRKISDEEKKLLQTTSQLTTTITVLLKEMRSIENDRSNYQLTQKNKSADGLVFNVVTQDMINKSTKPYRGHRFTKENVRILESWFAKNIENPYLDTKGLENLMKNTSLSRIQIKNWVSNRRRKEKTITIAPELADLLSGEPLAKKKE
# Experiment: PBM E-score (8-mer binding enrichment) (E-score (-0.5 to 0.5)); higher = stronger / more preferred TF binding; most listed sequences are background and not binding sites
# Settings: protein concentration: 200 nM; construct: GST-full length
# Summary of the method: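 E-scores (a modified Wilcoxon-Mann-Whitney statistic) were assigned by the Universal PBM Analysis Suite to every ungapped eight-base word pooled with its reverse complement. The input came from universal all-10-mer Agilent arrays made double-stranded by primer extension and probed with GST-tagged yeast transcription factors at about 100-200 nM. Fluorescent anti-GST detected bound protein, and masliner normalised the scans.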
row,Sequence,PBM E-score
1,ACGGATCG,-0.0949
2,ACGGTCTA,-0.0135
3,GCACGGAC,-0.0335
4,ACGTATTG,0.292
5,TGCTTACA,0.305
6,CGCGTCTA,0.191
7,AGCAACAG,-0.0259
8,GCTCCGGA,-0.136
9,CTGACACA,0.124
10,CACTGTAA,0.171
11,ATAAGAAG,-0.00544
12,ACAAGAGT,0.128
13,ATGTTCAG,0.187
14,CATTACTA,0.225
15,ATACGCCC,-0.166
16,GAGGGGGC,-0.37
17,CAAGCAGC,0.00857
18,ATCCACGA,0.0346
19,AGGTTCTA,-0.0454
20,AAAATGCT,0.063
21,GGAGTTAA,0.0478
22,ATCAGTGA,0.0117
23,CGATGTCC,-0.211
24,CCTATGAC,-0.234
25,CGTGGTCC,-0.0571

row,Sequence,PBM E-score
1,AGAAGGTA,0.105
2,AGTTGAGC,-0.0253
3,CTGGCGAA,-0.103
4,CCACAGGG,-0.191
5,AAGTCGAG,-0.0575
6,GTTTAGAA,0.156
7,GTTCATTA,0.167
8,GGCCCGCC,-0.354
9,CAGTCTTA,0.0157
10,CATTGCTC,-0.237
11,GAAAATAA,0.158
12,AACTAAGC,0.144
13,ACCAGGTG,-0.11
14,GAGACCCA,-0.279
15,GAAAACTC,0.167
16,ATTCGTTC,0.025
17,AGAAGGAC,-0.207
18,CTGAGATC,-0.258
19,ATCTGAGC,-0.0204
20,CGAGGCAG,-0.23
21,ATTTCAAC,0.223
22,TCATGCGA,-0.0821
23,AAGTTGGG,-0.117
24,ACGACGGA,-0.0664
25,CAGGGAGA,-0.194

row,Sequence,PBM E-score
1,TACCTCTA,0.0624
2,CTCCGAGA,-0.119
3,ATTTCGCG,0.135
4,GGAAACTA,-0.172
5,AACTCTGC,-0.215
6,CAACCCGA,-0.0172
7,AAACTACC,-0.00289
8,AGGAGTGA,-0.0561
9,ATTAATTA,0.243
10,ACGTGGCC,-0.0936
11,CGTTTCGA,0.0352
12,ACGCGAAG,0.217
13,AAACACGG,0.371
14,AGAGGGGG,-0.314
15,ACATGGCA,0.364
16,ACATTGTG,0.193
17,CAAGCACG,0.0774
18,AACCCCAT,-0.0917
19,GACTCCCC,-0.32
20,AACCCCAC,-0.162
21,GCGGCGTA,-0.0122
22,AAGAATGA,0.0309
23,GCGACAGC,-0.266
24,AAGATGCT,-0.0878
25,ACTCCAGC,-0.291

row,Sequence,PBM E-score
1,CCAATCCA,-0.197
2,CCCGTCCG,-0.301
3,CCTCGACG,-0.172
4,CGGCCCAG,-0.286
5,ACCGTCAT,-0.0314
6,ACCACTAG,-0.134
7,AACCTTGT,0.101
8,CGCTAGCG,-0.205
9,CAGGGGTA,-0.217
10,TCTTCCCA,-0.178
11,TACCGATA,-0.0558
12,CAATTTTA,0.112
13,AGGGTTGG,-0.0105
14,AATTGTCT,0.0105
15,GCCTCAGA,-0.2
16,CGAACTCC,0.111
17,CAACCCCG,-0.26
18,GCGGACAC,-0.0951
19,GCCTATAA,-0.121
20,AACCCAGC,0.0236
21,AAAGCTGG,-0.134
22,AGAATTTG,-0.0388
23,GTGTCAAC,0.305
24,CACAGTCG,-0.0552
25,ATGCAACA,0.265

row,Sequence,PBM E-score
1,AACCAGGG,-0.0827
2,TATATCCA,0.0304
3,GTAGGAAA,0.103
4,AGCTCCCG,-0.352
5,CATTCAAA,0.0527
6,ATATATAC,0.345
7,GCTCCGTA,-0.0781
8,CGCTGCAC,-0.00467
9,CTGTTAAA,0.258
10,GCCGTAAC,-0.0564
11,ACCAGGGG,-0.359
12,AAATCGAG,-0.0386
13,CCATGTAC,0.398
14,CGGCCTTC,-0.183
15,ACTAATAC,0.265
16,GGTTTGTA,0.259
17,CGGCACAA,0.00623
18,AAATCCGC,-0.125
19,GACCCACA,-0.0821
20,AGATGTTC,0.0875
21,ACAATTCG,0.129
22,CCGCCCGA,-0.212
23,ATACGAAA,0.212
24,CAAGCCAC,-0.174
25,AGACCCTA,-0.145

row,Sequence,PBM E-score
1,ATTCAGCG,-0.0822
2,AAATACGC,0.31
3,AAGTCTTC,-0.0639
4,CATTTTTC,0.0489
5,CAGGTATC,-0.166
6,ATTACAAA,0.414
7,TCACCACA,-0.0321
8,AACAATAC,0.307
9,ACAAGAGC,0.139
10,GTGCGTAA,0.406
11,CAGACAGC,-0.154
12,AATTCCTG,-0.0426
13,ATGTATTG,0.416
14,AGTTACGG,-0.207
15,AATGCGCA,-0.00584
16,TGGAACAA,0.119
17,CTTCGCAC,-0.0508
18,GTCTCATA,0.0229
19,AATTGACA,0.275
20,CGTAGGGC,-0.142
21,CATAGAAG,0.168
22,CAGCGGTA,0.056
23,TCCCTCCA,-0.271
24,ACGCCGCA,-0.0652
25,AGCCTAGA,-0.204

row,Sequence,PBM E-score
1,ACGGGACT,-0.101
2,GATAAATC,-0.0973
3,CAGTTACC,-0.0227
4,CGAGAGCC,-0.342
5,ACCTAAGT,0.0659
6,ATTGTCAA,0.182
7,AACTAACC,0.254
8,GAAATGGC,-0.227
9,AAAAGCGC,0.0549
10,TCGAGGCA,-0.0756
11,CAATGGCG,-0.276
12,AGCTCGAA,-0.107
13,TCATTCCA,-0.147
14,GTGCCGCA,-0.15
15,TCGAATCA,-0.0462
16,CATTCCTA,-0.0738
17,ACTCCTTA,-0.103
18,ACGGCACC,-0.176
19,GCCCACAA,-0.223
20,AAGTATAA,0.148
21,CAGCCGGA,-3e-05
22,AATACTGC,-0.164
23,TATGAATA,0.158
24,AGTACCTA,0.12
25,CACTTTCA,-0.0448

row,Sequence,PBM E-score
1,GTAAACAC,0.416
2,AGTTAACA,0.392
3,GCATGACC,-0.191
4,GACCGTCA,-0.158
5,AACAGCAT,0.124
6,CCATACCG,-0.227
7,ATAGGGCA,-0.199
8,CGTGCACA,0.0535
9,AGTTCGAC,0.0995
10,AATGACCA,-0.128
11,TCGGAAAA,0.033
12,GCTCCGCA,-0.128
13,ATGCATTC,0.0676
14,CCCTCGAA,-0.283
15,GCAACTTA,0.121
16,ACCACTAC,-0.103
17,GTGCTAAA,0.201
18,CATAGCCG,0.13
19,CCCAGGAG,-0.293
20,CCAGGGCA,-0.241
21,ACGGGATA,-0.00603
22,ATAAGGTC,-0.0499
23,AGTACTTA,0.095
24,AGCCAACG,-0.0146
25,GACATATC,0.0678

row,Sequence,PBM E-score
1,AGCGAACT,-0.023
2,CCTCGAGC,-0.148
3,CAGAACAA,0.255
4,AGGGTGCG,-0.148
5,CCGCGCGG,-0.0226
6,CGGGTCCA,-0.262
7,ACAATACA,0.326
8,TTAACAAA,0.347
9,ACCAATAC,0.118
10,AGAGAGCA,-0.234
11,CGATACAA,0.0812
12,CACAAATA,0.248
13,GCGTCGCA,-0.0805
14,TCCCGCGA,-0.243
15,GAGATATC,-0.00919
16,ACTTATGC,-0.00662
17,CAAAACTC,0.0232
18,GGCGAACC,-0.277
19,CGCCGTAG,0.0186
